Among the data in the RNAGym collection of RNA variant scans (doi:10.7554/elife.90254) are self-cleavage values, retold here.

Sequences and labels used below:
B1: LINE1-full (parent)
chain: UACGUAGGUGGUUUUCCCCUGAUAGUGCUAAGGGGGCCUGGAAGUUUGGACUGGGCAGAGCUCAACACAGCGUGGCAAAGUGGCUGUGGCUAGACUGCCUCUCUGGAUUCCUCGUCACUCAGCAGGGCAUCUCUGAGAGAAAUGCC

The source gives no read counts; variants with many changes may rest on few reads.

Variants of B1 are the subject of this data set. The experiment in a line: self-cleavage, relative activity (ratio to wild type); higher = more cleavage; in vitro, sequencing; the parent is a self-cleaving ribozyme.
On to UACGUAGGUGGGUUUCCCCUGAUUGUGCUAAGGGGGCCUGGAAGUUUGGACUGGGCAGAGCUCAACACAGCGUGGCAAAGUGGCUGUGGCUAGACUGCCUCUCUGGACUCCUCGUCACUCAGCAGGGCAUCUCUGAGAGAAAUGCC [U12G A24U U108C], for which the self-cleavage came out at 0.
The result for UACGUAGGUGGGUUUCCCCUGAUAGUGCUAGGGGGGCCUGGAAGUUUGGACUGGGCAGAGCUCAACACAGCGUGGCAAAGUGGCUGUGGCUAGACUGCCUCUCUGGAUUCCUCGCCACUCAGCAGGGCAUCUCUGAGAGAAAUGCC [U12G A31G U115C] reads 0.18; that for UACGUAGGUGGGUUUCCCCUGAUAGUGCUAAGGGGGCCUGGAGGUUUGGACUGGGCAGAGCUCAACACAGCGUGGCAAAGUGGCUGUGGCUAGACUGCCUCUCUGGAUUCCUCGUCACCCAGCAGGGCAUCUCUGAGAGAAAUACC [U12G A43G U119C G144A], 1.18; that for UACGUAGGUGGGUUUCCCCUGAUAGUGCUAAGGGGGCCUGGAUGUUUGGACUGGGCAGAGCUCAACACAGCGUGGCAAAGUGGCUGUGGCUAGACUGCCUCUCUGGAUUCCUCGUCACUCAGCUGGGCAUCUCUGAGAGAAAUGCC [U12G A43U A124U], 1.16.
With UACGUAGGUGGGUUUCCCCUGGUAGUGCUAAGGGGGCCUGGAGGUUUGGACUGGGCAGAGCUCAACACAGCGUGGCAAAGUGGCUGUGGCUAGACUGCCUCUCAGGAUUCCUCGUCACUCAGCAGGGCAUCUCUGAGAGAAAUGCC [U12G A22G A43G U104A], the self-cleavage was determined as 0.82.
The result for UACGUAGGUGGGUUUCCCCUGUUAGUGCUAAGGGGGCCUGGAAGUUUGGACUGGGCGGAGCUCAACACAGCGUGGCAAAGUGGCUGUGGCUAGACUGCCUCUCUGGAUUCCUCGUCACUCUGCAGGGCAUCUCUGAGAGAAAUGCC [U12G A22U A57G A121U] reads 0.48; that for UACGUAGGUGGGUUUCCCCUGGUAGUGCUAAGGGGGCCUGGAAGUUUGGACUGGGCAGAGCUCAACACAGCGUGGCAAAGUGGCUGUGGCUAGACUGCCUCUCUGGAUUCCUCGUCACUCAGCAGGGCACCUCUGAGAGAAAAGCU [U12G A22G U130C U143A C146U], 1.02.
In the case of UACGUAGGUGGGUUUCCCCUGGUAGUGCCAAGGGGGCCUGGAAGUUUGGACUGGGCAGAGCCCAACACAGCGUGGCAAAGUGGCUGUGGCUAGACUGCCUCUCUGGAUUCCUCGACACUCAGCAGGGCAUCUCUGAGAGAAAUGCC [U12G A22G U29C U62C U115A], the self-cleavage is 0.
The value for UACGUAGGUGGCUUUCCCCUGAUAGUGCUAAGGGGGCCUGGAAGUUUGGACUGGGCAGAGCUCAACACAGCGUGGCAAAGUGGCUGUGGCUAGACUGCCUCUCUGGAUUCCUCGUCACACAGUAGGGCAUCUCUGAGAGAAAUGCC [U12C U119A C123U] was 1.57; that for UACGUAGGUGGGUUUCCCCUGAUAGUGCUAAGGGGGCCUGGGAGUUCGGACUGGGCAGAGCUCAACACAGCGUGGCAAAGUGGCUGUGGCUAAACUGCCUCUCUGGAUUCCUCGUCACUCAGCAGGGCAUCUCUGAGAGAAAUGCC [U12G A42G U47C G93A] was 0.16.
The result for UACGUAGGUGGCUUUCCCCUGAUAGUGCUAAGGGGGCCUGGAAGUUUGGACUGGGCAGAGCUCAACACAGCGUGGCAAAGUGGCUGUGGCUAGACUGCCUCUCUGGAUUCCUCGUCACUCAGCAGGGCAUCACUGGGAGAGAUGCC [U12C U132A A136G A141G] reads 0.32; that for UACGUAGGUGGGUUUCCCCUGAUAGUGCUAAGGGGGCCUGGAGGUUUGGACUGGGCAGAGCUCAACACAGCGUGGCAAAGUGGCUGUGGCUAGACUGCCUCUCUGGAUUCCUCGUCACUCAGCAGGGCAUCCCUGAGAGAAAUGCC [U12G A43G U132C], 0; that for UACGUAGGUGGGUUUCCCCUGGUAGUGCUAAGGGGGCCUGGAAGUUUGGACUGGGCAGAGCUCAACACAGCGUGGCAAAGUGGCAGUGGCUAGACUGCCUCUCUGGAUUCCUCGUCACUCAGCAGGGCAUCUCUGAGAGAAAUGCC [U12G A22G U85A], 0.12.
The value for UACGUAGGUGGGUUUCCCCUGGUAGUGCUAAGGGGGCCUGGAAGUUUGGACUGGGCAGAGCUCAACACAGCGUGGCAAAGUGGCUGUGGCUAGACUGCCUCUCUGGAUUCCUCGUCACUCAGCAGGGCAUCUCUGCGAGAAAUGCC [U12G A22G A136C] was 0.88.
On to UACGUAGGUGGCUUUCCCCUGAUAGUGCUAAGGGGGCCUGGAAGUUUGGACUGGGCAGAGCUCAACACAGCGUGGCAAAGUGGCUGUGGCUAGACUGCCUCUCUGGAUUCCCCGUCACUCAGCGGGGCAUCUCUGAGAGGAAUGCC [U12C U112C A124G A140G], for which the self-cleavage was 0.17.
The value for UACGUAGGUGGGUUUCCCCUGAUAGUGCUACGGGGGCCUGGAAGUUUGGACUGGGCAGAGCUCAACACAGCGUGGCAAAGUGGCUGUAGCUAGACUGCCUCUCUGGAUCCCUCGUCACUCAGCAGGGCAUCUCUGAGAGAAAUGCC [U12G A31C G88A U109C] was 0.25; that for UACGUAGGUGGGUUUCCCCUGAUAGUGCUGAGGGGGCCUGGAAGUUUGGACUGAGCAGAGCUCAACACAGCGUGGCAAAGUGGCUGUGGCUAGACUGCCUCUCUGGAUUCCACGUCACUCAGCAGGGCAUCUCUGAGAGAAAUGCC [U12G A30G G54A U112A] was 0.74; that for UACGUAGGUGGGUUUCCCCUGAUAGUGCUAAGGGGGCCUGGGAGUUAGGACUGGGCAGAGCUCAACACAGCGUGGCAAAGUGGCUGUGGCUAGACUGCCUCUCUGGAUUCCUCGUCACUCAGCAGGGCAUCUCUGAGAGAAAUGCC [U12G A42G U47A] was 2.68.
For UACGUAGGUGGGUUUCCCCUGAUAGUGCUAAGGGGGCCUGGAAGUUUGGACUGGGCGGAGCUCAACUCAGCGUGGCAAAGUGGCUGUGGCUAGACUGCCUCUCUGGAUUCCUCGUCACUCAGCAGGGCACCUCUGAGAGAAAUGCC [U12G A57G A67U U130C], the self-cleavage came out at 0.
The result for UACGUAGGUGGGUUUCCCCUGAUAGUGCUAAGGGGGCCUGGAAGUUUGGGCUGGGCAGGGCUCAACACAGCGUGGCAAAGUGGCUGUGGCUAGACUGCCUCUCUGGAUUCCUCGUCUCUCAGCAGGGCAUCUCUGAGAGAAAUGCC [U12G A50G A59G A117U] reads 0.49.
